Reference: the RNAGym collection of RNA variant scans (doi:10.1073/pnas.2313332121)
This sample is rich in variants without activity.

B1: TPR 5TU (parent)
chain: GGAUCUUCUCGAUCUAACAAAAAAGACAAAUCUGCCACAAAGCUUGAGAGCAUCUUCGGAUGCAGAGGCGGCAGCCUUCGGUGGCGCGAUAGCGCCAACGUUCUCAACUAUGACACGCAAAACGCGUGCUCCGUUGAAUGGAGUUUAUCAUG

Variants of: B1
Assay: polymerase ribozyme fitness, log enrichment relative to wild type (log ratio); higher = more active; in vitro selection for triplet polymerase activity
Outline: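 Each subunit of a heterodimeric triplet polymerase ribozyme was represented by a PCR-built, transcribed mutant library that underwent triplicate single-round in vitro selection with frozen incubation at −7 °C. Extended constructs were recovered by gel excision, streptavidin-bead capture and RT-PCR, and Illumina sequencing of input and output libraries kept genotypes with ≥10 input reads and ≥1 read per output. Fitness is the logarithm of genotype enrichment relative to wild-type enrichment, from inverse-variance-weighted replicate averages, with a logarithm base of 2.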

C8A U9G A39C C103A and C8A U9G U55A C57A A107G A121U G126U U139C G141U cannot be ordered by “polymerase ribozyme fitness (log ratio)” value: no more than -4.2 for the first, no more than -4.2 for the second.

C8A U13A A24C A28U A91U C96G C103U C118G and C8A U13G A21G A28G G68U G81A C118G G143U cannot be ordered by “polymerase ribozyme fitness (log ratio)” value: no more than -4.2 for the first, no more than -4.2 for the second.

First: C8A U15C G50U C75U G86U
Second: C8A U15G C18U G58C C96G
The “polymerase ribozyme fitness (log ratio)” value of the first is lower: no more than -4.2 for the first, -3.95 for the second.

Compared with C8A U15G C95U A98G C149U A150U, C8A U31A U56G C63A G68U C99A G128U is lower in “polymerase ribozyme fitness (log ratio)” value: -4.06 for the first, no more than -4.2 for the second.

C8A U31C A41U G58A G71A C76U C125U A142G and C8A U31G A37G G42A G83A cannot be ordered by “polymerase ribozyme fitness (log ratio)” value: no more than -4.2 for the first, no more than -4.2 for the second.

First: C8A U31G A66U G92U G100C C118A G152A
Second: C8A U31G C36U C114U A142C
The “polymerase ribozyme fitness (log ratio)” value of the first is lower: no more than -4.2 for the first, -4.19 for the second.

C8A U44C C79G G86C G140U and C8A U45G C51A A52C A73C A91U G94A A106G C118A cannot be ordered by “polymerase ribozyme fitness (log ratio)” value: no more than -4.2 for the first, no more than -4.2 for the second.

First: C8A U53A
Second: C8A U55A A66C G67U U77A C99U C108U G133C G136A
The “polymerase ribozyme fitness (log ratio)” value of the first is higher: -3.45 for the first, no more than -4.2 for the second.

C8A U55G A66U G94A and C8A U56A A66C G94A A98U cannot be ordered by “polymerase ribozyme fitness (log ratio)” value: no more than -4.2 for the first, no more than -4.2 for the second.

C8A U56A C79U G84C G112A C131U U146A and C8A U56A C85U cannot be ordered by “polymerase ribozyme fitness (log ratio)” value: no more than -4.2 for the first, no more than -4.2 for the second.

C8A U56A U77C G86U C103G A115U C125A G143U and C8A U77C G94U U135A U139C cannot be ordered by “polymerase ribozyme fitness (log ratio)” value: no more than -4.2 for the first, no more than -4.2 for the second.

C8A U109G C116A and C8G A12C U78C C93U C99A A115C cannot be ordered by “polymerase ribozyme fitness (log ratio)” value: no more than -4.2 for the first, no more than -4.2 for the second.

C8G A12G A41C U78C C87U G94A C99G and C8G A12U G25A A28U A39C G58C G94U U144G cannot be ordered by “polymerase ribozyme fitness (log ratio)” value: no more than -4.2 for the first, no more than -4.2 for the second.

C8G A16G G68A C96U A98G A119C A121C C125A and C8G A16U A20U C79U C85U A115C cannot be ordered by “polymerase ribozyme fitness (log ratio)” value: no more than -4.2 for the first, no more than -4.2 for the second.

C8G A16U A20U G70A G92U A120U G140A and C8G A16U A23U C57A A115C cannot be ordered by “polymerase ribozyme fitness (log ratio)” value: no more than -4.2 for the first, no more than -4.2 for the second.

C8G A16U G67C G83U C116G G117A G124U and C8G A17C U102G G141C cannot be ordered by “polymerase ribozyme fitness (log ratio)” value: no more than -4.2 for the first, no more than -4.2 for the second.

Going from C8G A17G A21U A98G to C8G A17U A52G G92A U130G C132G, the “polymerase ribozyme fitness (log ratio)” value falls from -3.93 to no more than -4.2.

C8G A19C C54U and C8G A19G A21G A47U G92U A120U C129U cannot be ordered by “polymerase ribozyme fitness (log ratio)” value: no more than -4.2 for the first, no more than -4.2 for the second.

C8G A20C G67C G68C A113U and C8G A20C U33G A52G U61A G84C C125A cannot be ordered by “polymerase ribozyme fitness (log ratio)” value: no more than -4.2 for the first, no more than -4.2 for the second.

C8G A20U C32G A40G and C8G A20U U78C G83A A110G G136A U145C cannot be ordered by “polymerase ribozyme fitness (log ratio)” value: no more than -4.2 for the first, no more than -4.2 for the second.

C8G A21U A22G A60G C93U and C8G A21U C38U G59A G74A C95A cannot be ordered by “polymerase ribozyme fitness (log ratio)” value: no more than -4.2 for the first, no more than -4.2 for the second.

C8G A21U G83A G140C and C8G A22G U44A A52C A73C C125G cannot be ordered by “polymerase ribozyme fitness (log ratio)” value: no more than -4.2 for the first, no more than -4.2 for the second.

C8G A22U C36A G42A G67A G80A G84C C116G and C8G A22U C85U C103U cannot be ordered by “polymerase ribozyme fitness (log ratio)” value: no more than -4.2 for the first, no more than -4.2 for the second.

C8G A22U G58A U61A U77G G88A and C8G A22U U55A U82G A91G A107G U109G cannot be ordered by “polymerase ribozyme fitness (log ratio)” value: no more than -4.2 for the first, no more than -4.2 for the second.

C8G A23U G83A and C8G A23U G83A G124C cannot be ordered by “polymerase ribozyme fitness (log ratio)” value: no more than -4.2 for the first, no more than -4.2 for the second.

C8G A24C C38U G71C A91C and C8G A24G A52G U53A C57U G140U U148C cannot be ordered by “polymerase ribozyme fitness (log ratio)” value: no more than -4.2 for the first, no more than -4.2 for the second.

C8G A24U A29G C54G C57U G94A A98G U135G and C8G A24U A40C C69A G84A C103U C123A cannot be ordered by “polymerase ribozyme fitness (log ratio)” value: no more than -4.2 for the first, no more than -4.2 for the second.

C8G A24U C32U C54G U61A G92U C99A and C8G A26C A64U A66C G88U A119G U148C cannot be ordered by “polymerase ribozyme fitness (log ratio)” value: no more than -4.2 for the first, no more than -4.2 for the second.

C8G A26C G46A C63U G88C C96A A150C and C8G A28C C72A U82A C87G cannot be ordered by “polymerase ribozyme fitness (log ratio)” value: no more than -4.2 for the first, no more than -4.2 for the second.

C8G A28U C35U C36U G48C A49U C79A G86U A119U and C8G A28U C87U C105U cannot be ordered by “polymerase ribozyme fitness (log ratio)” value: no more than -4.2 for the first, no more than -4.2 for the second.

C8G A29C C32G C51U G58C G94C and C8G A29C G42C cannot be ordered by “polymerase ribozyme fitness (log ratio)” value: no more than -4.2 for the first, no more than -4.2 for the second.

C8G A29C G58C G84C A122G U145G and C8G A29C G88C C96U C108A A142G cannot be ordered by “polymerase ribozyme fitness (log ratio)” value: no more than -4.2 for the first, no more than -4.2 for the second.

C8G A29G U31A G83C C93G and C8G A29U C95G G128U cannot be ordered by “polymerase ribozyme fitness (log ratio)” value: no more than -4.2 for the first, no more than -4.2 for the second.

C8G A29U G65A G81C C129U U135A U139G G143A and C8G A30C C75A G86U C118G cannot be ordered by “polymerase ribozyme fitness (log ratio)” value: no more than -4.2 for the first, no more than -4.2 for the second.

C8G A39U C63U G68A G80U G86C A106G C118U and C8G A40C C54U G58U G84A cannot be ordered by “polymerase ribozyme fitness (log ratio)” value: no more than -4.2 for the first, no more than -4.2 for the second.

C8G A40C C76A A91G and C8G A41U C76A A91U C95G cannot be ordered by “polymerase ribozyme fitness (log ratio)” value: no more than -4.2 for the first, no more than -4.2 for the second.

C8G A41U U55G U56A G65A G70C U78A G81A C93A A122U and C8G A47C C54G C93A G126A cannot be ordered by “polymerase ribozyme fitness (log ratio)” value: no more than -4.2 for the first, no more than -4.2 for the second.

C8G A47C G50C U78G G94U C108A A121U and C8G A47G U104A C105A A106U G141U cannot be ordered by “polymerase ribozyme fitness (log ratio)” value: no more than -4.2 for the first, no more than -4.2 for the second.

C8G A49C G50A C57U C63U C87A C99U C123G and C8G A49C G83C cannot be ordered by “polymerase ribozyme fitness (log ratio)” value: no more than -4.2 for the first, no more than -4.2 for the second.

First: C8G A52C U55C G65A G83U C105U G143U
Second: C8G A52G
The “polymerase ribozyme fitness (log ratio)” value of the first is lower: no more than -4.2 for the first, -3.17 for the second.

C8G A52G A66C G84C C85A G126U and C8G A52G G92C C96A U148A U151G cannot be ordered by “polymerase ribozyme fitness (log ratio)” value: no more than -4.2 for the first, no more than -4.2 for the second.

C8G A73U and C8G A73U C87G cannot be ordered by “polymerase ribozyme fitness (log ratio)” value: no more than -4.2 for the first, no more than -4.2 for the second.
